The source of these data is the RNAGym collection of RNA variant scans (doi:10.7554/elife.90254).

Read counts are not given, so values of variants with three or more changes are uncertain.

First the molecules themselves.
B1: LINE1-mini (parent)
chain: GGCAGAGCUCAACACAGCGUGGCAAAGUGGCUGUGGCUAGACUGCC

In the series the parent is B1. Briefly: self-cleavage, relative activity (ratio to wild type); higher = more cleavage; in vitro, sequencing; the parent is a self-cleaving ribozyme.
For the variant G7U A24C G30U G33A G36U, the self-cleavage was determined as 0.2.
For G7U A12C G27A G29U the value was 0.01; for G7U G17A C23A A26U, 0.01.
For G7U C31U G40C, the self-cleavage stood at 0.09.
On to G7U A25G G30U, for which the self-cleavage is 0.06.
For G7U U9A G35A U38C G40U the value was 0.07; for G7U G19U U32A, 0.03; for G7U C8G A25C G27C G40U, 0.13.
For G7U U28G C42A the value was 0.02; for G7U C8G C15U A25U G27U G40U C42G, 0.04.
For G7U A14G G19C U28A the value was 0.03; for G7U A12G G19U G21A G27U U34C G44U, 0.03.
With G7U G27U U34G, the self-cleavage worked out at 0.03.
For G7U C8U C45G the value was 0.07; for G7U C8U C45A, 0.22.
G7U C13A G19C G27C G44A: the self-cleavage is 0.
For G7U C10A A25U G36A the value was 0.02.
For G7U A14C C37A the value was 0.01; for G7U U9C C18G A24U, 0.11.
For G7U A41C U43G the value was 0.14; for G7U C23G G33A, 0.05.
In the case of G7U U9G C18A, the self-cleavage was found to be 0.02.
Take G7U A12U C15U A25G A39U G40A: the self-cleavage stood at 0.04.
For G7U C8U G30U G40U U43A the value was 1.21; for G7U C18U C31G G33C G36A A41C, 0.01.
For G7U C10G C13A the value was 0.03.
For G7U G35U G44U the value was 0.64; for G7U C15A U38A, 0.09; for G7U U28G G35C U38G U43A, 0.08.
G7U A12C G35U G40C: the self-cleavage amounted to 0.01.
For G7U C8G C15A the value was 0.07; for G7U G30U U32C G33U C46G, 0.07; for G7U C15G U28G, 0.07.
For G7U U9C A26U G36U the value was 0.02.
For G7U C18G U28C G40U the value was 0.01; for G7U A24G C37U C46G, 0.06; for G7U G17A G44U, 0.21.
Consider G7U U9A G19C U28C U43C, for which the self-cleavage came to 0.02.
For G7U U9A C45A the value was 0.35; for G7U U9C G27U G29A, 0.01.
Consider G7U C18A G30A A39C G44A, for which the self-cleavage was 0.1.
With G7U G17U G22C A24G C45A, the self-cleavage came out at 0.03.
For G7U A24C C37A the value was 0.07; for G7U C13G U20A U38C, 0.44; for G7U G22A A26G G29U G35A G40C, 0.45.
For G7U C13A G22C A24C C37G C46G the value was 0.01.
In the case of G7U C8G C31U, the self-cleavage came out at 0.13.
For G7U G17U C18A the value was 0.1; for G7U G21U U38G A41G, 0.03.
In the case of G7U C10A G29A G36A U38C G44U, the self-cleavage came out at 0.01.
For G7U G17A A24U C37A A41G the value was 0.02.
For G7U U9A A16U C18U C23A A24C the value was 0.04; for G7U C8U A11C, 0.04; for G7U C8U G19C U20A A25U U28G G36A C45U, 0.29.
G7U G35U G40C: the self-cleavage came out at 0.1.
For G7U U9C U34G A39C the value was 0.07.
For G7U U9C C10U C15G C37A the value was 0.03; for G7U G19C A39G, 0.03; for G7U U34A G35C, 0.02.
For G7U G21U U28A G36A the value was 0.03; for G7U U9G A12C G30A C37G, 0.
For G7U U20C A39U, the self-cleavage came to 0.02.
For G7U A14C G17C C23A the value was 0.11; for G7U C10U A16U, 0.12; for G7U C13G C15G, 0.21.
For G7U U20A G33A G35U C46A the value was 0.08.
For G7U C23G A39C the value was 0.04.
Turning to G7U A25U C42U, the self-cleavage amounted to 0.11.
As for G7U C13U C15G A24U G36U, the self-cleavage is 0.09.
For G7U G21C G33A G36U A39G G44C the value was 0.02; for G7U G30C U38A, 0.04; for G7U G21C A24U, 0.07.
For G7U A12U G19A U38G the value was 0; for G7U G17C U20G U28C U43C, 0.05.
For G7U G29U G30U C31G U43A the value was 0.08.
On to G7U C8U A25C C42G, for which the self-cleavage is 0.25.
For G7U C31A G33C C45A the value was 0.01; for G7U C10A U20G C42G, 0.01; for G7U G33C G40A, 0.15.
For the variant G7U C23U U43C, the self-cleavage was 0.02.
G7U C10A U34G U38A: the self-cleavage was 0.01.
For G7U G17C G22U the value was 0.01; for G7U U9A A16G G30A, 0.03.
Turning to G7U C10G C13A G33A G36A G40A G44A, the self-cleavage was 0.02.
For the variant G7U G17U G22A, the self-cleavage amounted to 0.47.
For G7U C13G A26U U34A the value was 0.09; for G7U C8A C15G A24G, 0.13.
For G7U C23U G29U C45A the value was 0.01.
Take G7U G19C G27C: the self-cleavage is 0.05.
For G7U U32A G35U C42G the value was 0.04; for G7U U20G A24G G36U, 0.04; for G7U A16U G33A G35C, 0.14.
For G7U C13A G17U G19A U43A the value was 0.08; for G7U C37G U43A, 0.02; for G7U U9G U32A U43A G44U, 0.03.
For G7U C31A G33U G40A C45U the value was 0.09.
For the variant G7U U9C U34C A39G, the self-cleavage is 0.
For G7U U9C C10U A16U the value was 0.02; for G7U A14C G19U G30C, 0.13; for G7U G19C G30C C42U, 0.04.
With G7U A24C A41C U43G, the self-cleavage was 0.2.
For G7U G29C A41G the value was 0.03; for G7U C13A C18A U28G A41C, 0.01; for G7U G22C U34C, 0.04.
For G7U C10A C37G the value was 0.04.
For G7U C10A A24U U34A the value was 0.03; for G7U A12G U20C G22U, 0.02.
Regarding G7U G21C G36A A41C, the self-cleavage came out at 0.17.
For G7U C18U C23U C42U the value was 0.21; for G7U C8U U20C A25C G40U, 0.24; for G7U C15U G19U G44C, 0.17.
For G7U G36U A41G U43A the value was 2.04; for G7U C8A G29A, 0.11; for G7U C13U G19U A39U, 0.04.
For G7U A12G G27U the value was 0.01; for G7U C15A A24U G27C U28A, 0.1.
In the case of G7U C13A A14G C37A C42U U43G G44C, the self-cleavage was 0.05.
For G7U G22U G30A A39U C42G the value was 0.04.
For G7U C8G C10G C23G G35A the value was 0.03.
For G7U C15G G19U C45A the value was 0.25.
Take G7U G21U C45U: the self-cleavage worked out at 0.04.
For G7U A24G G30U G33A G35U the value was 0.05.
For G7U C10A A11C G22A the value was 0.02.
For G7U C18U G30U the value was 0.06.
For the variant G7U C8A C10G G27C, the self-cleavage amounted to 0.04.
For G7U G17C A41U the value was 0.07; for G7U G21A G36U, 0.02.
For G7U C18U U34G the value was 0.1; for G7U G17U A24G C31G, 0.02; for G7U A14G U38C, 0.02.
For G7U A14G U38G the value was 0.04; for G7U A16U C23U, 0.16; for G7U A25C A26C C42G, 0.05.
G7U G22A C23U: the self-cleavage worked out at 0.05.
For G7U U32A C42A the value was 0.16.
For G7U A16C A26G the value was 0.33; for G7U C10G A26U, 0.04.
For G7U A14U C15A G30A the value was 0.
For the variant G7U G21A G30C C46U, the self-cleavage stood at 0.05.
In the case of G7U G19C A41G, the self-cleavage amounted to 0.12.
For G7U G27U G36U the value was 0.02; for G7U G30U C31U U34A, 0.01.
For G7U C10U C42G the value was 0.03; for G7U C23U U38C C45G, 0.27; for G7U A16U A39C G40U, 0.07.
For G7U G33C G44U the value was 0.06; for G7U C10U C13A G17C, 0.03.
In the case of G7U G21A C45A, the self-cleavage worked out at 0.11.
For G7U U9C U34C G44U C46G the value was 0.03.
Consider G7U C8U C10A G27C, for which the self-cleavage stood at 0.02.
Take G7U C10U A16C U28G C46A: the self-cleavage turned out to be 0.07.
For G7U C8U C23G U32G G44C the value was 0.09; for G7U C13G G21A G22U U34A, 0.32; for G7U C10G C15U G29A C37U U38C, 0.
For G7U A24G U28A the value was 0.04; for G7U C13A C18A A24C A26G C31A A39G, 0.
Turning to G7U C8A A12G G19U, the self-cleavage was 0.1.
In the case of G7U G35A G40C, the self-cleavage turned out to be 0.08.
For G7U C37G A41G the value was 0.02.
For G7U C37U U38G C46A the value was 0.02; for G7U U20A U28A G33C C45G, 0.01.
For G7U U20G A26G C31A G36C the value was 0.01; for G7U A12U C31G U34G, 0; for G7U C8G C10A A39G C46A, 0.
Take G7U G19C A24G: the self-cleavage worked out at 0.05.
For G7U C8G C45G the value was 0.06; for G7U C10G A39U, 0.01.
